Screen size: about 48,000 compounds; about 550 (1.1%) were called active. Another 4% or so got no clear call; they are omitted. Cut-off read from the data, not from the text of the source: active = potency below about 15 µM; inconclusive = mostly about 16 µM to 33 µM; inactive = weaker than that. The list shows a part of the results.
Molecular target: Lysosomal acid glucosylceramidase (Homo sapiens) (UniProt P04062)
Experiment: Glucocerebrosidase;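 note: the screen sought inhibitors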
Conditions: purified enzyme, resorufin glucoside fluorescence (screen aimed at inhibitors), 20 min
In short: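 Normal human glucocerebrosidase (0.2 nM final) was assayed with resorufin β-D-glucopyranoside (30 uM final) in 50mM citric acid/KH2PO4, 10mM sodium taurocholate, 0.01% tween-20, pH 5.9. Compounds were titrated; fluorescence (Ex 548, Em 600) read after 20 min at RT.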
Potency is the fitted concentration of half-maximal effect.

Chain of UniProt P04062 (P04062 whole entry, looked up): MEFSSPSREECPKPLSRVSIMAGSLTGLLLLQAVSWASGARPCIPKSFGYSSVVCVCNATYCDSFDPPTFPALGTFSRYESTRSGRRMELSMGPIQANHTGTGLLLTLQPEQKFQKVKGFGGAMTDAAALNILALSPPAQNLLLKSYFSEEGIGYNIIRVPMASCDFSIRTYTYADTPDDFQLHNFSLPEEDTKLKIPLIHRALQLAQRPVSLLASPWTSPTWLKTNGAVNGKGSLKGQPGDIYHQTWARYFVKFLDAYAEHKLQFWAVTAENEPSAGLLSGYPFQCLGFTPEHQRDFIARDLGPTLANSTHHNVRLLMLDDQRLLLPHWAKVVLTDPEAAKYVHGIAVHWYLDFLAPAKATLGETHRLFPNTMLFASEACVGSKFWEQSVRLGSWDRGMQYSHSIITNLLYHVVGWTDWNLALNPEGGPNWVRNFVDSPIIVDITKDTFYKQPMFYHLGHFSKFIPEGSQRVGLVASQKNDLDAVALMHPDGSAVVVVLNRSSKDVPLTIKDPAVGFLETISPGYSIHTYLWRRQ

Potency, inactive:
CC(C)OP(=O)(c1ccc(N(C)C)cc1)C(O)c1ccccc1F (stereo unspecified) > 76.9 µM
CCOc1ccc(-c2nn3c(-c4ccc(F)cc4)nnc3s2)cc1 > 76.9 µM
c1ccc(COc2cccc(CNn3cnnc3)c2)cc1 > 76.9 µM
CCN(CCCNC(=O)C1CCCN(S(=O)(=O)CC)C1)c1cccc(C)c1 (stereo unspecified) > 76.9 µM
CSc1cccc(NC(=O)c2c(Cl)cnn2C)c1 > 76.9 µM
COc1cc2c(C#N)c(N3CCN(c4ccccc4OC)CC3)nc(N)c2c(N)n1 > 76.9 µM
CCOC(=O)CNC(=O)Cn1cnc2ccc(S(=O)(=O)N3CCC(C)CC3)cc2c1=O > 76.9 µM
O=C(NCc1cccnc1)C1CCCN(S(=O)(=O)c2ccc(Cl)cc2)C1 (stereo unspecified) > 76.9 µM
Cc1ccc2c(c1)N(CCC(=O)NCc1ccccn1)C(=O)CO2 > 76.9 µM
COC(=O)CN(c1ccccn1)S(=O)(=O)c1ccccc1 > 76.9 µM
CCN(CC)C(=O)C1CCN(Cc2ccc(Br)cc2)CC1 > 76.9 µM
COC(=O)c1c(C)cc(C)n2c1nc1ccccc12 > 76.9 µM
CC1CCCCC12NC(=O)N(Cn1nnc3ccccc3c1=O)C2=O (stereo unspecified) > 76.9 µM
CCOC(=O)c1ccccc1NC(=O)c1ccccc1N(C)S(C)(=O)=O > 76.9 µM
Cn1c(=O)c(C#N)c(-c2ccccc2)n2cnnc12 > 76.9 µM
NC(=O)Nc1ccc(Oc2c(F)c(F)c(F)c(F)c2F)cc1 > 76.9 µM
O=C(CSc1ccc2nnc(-c3cccc(F)c3)n2n1)NCc1ccco1 > 76.9 µM
CCCOc1ccc(-c2nnc(-c3ccco3)o2)cc1 > 76.9 µM
Cc1cc(C)n(C(=O)c2ccc(NC(=O)C3COc4ccccc4O3)cc2)n1 (stereo unspecified) > 76.9 µM
COc1ccc2c(=O)c3c(=O)n(Cc4ccco4)c(-c4ccc(C)cc4)nc3oc2c1 > 76.9 µM
COc1ccc(Oc2cn[nH]c2-c2ccc(O)cc2O)cc1 > 76.9 µM
Cc1ccc(C(=O)Nc2ccccc2N2CCN(C(=O)C(C)C)CC2)cc1 > 76.9 µM
O=c1c2ccccc2n(Cc2ccc(Cl)cc2)c(=O)n1Cc1ccco1 > 76.9 µM
CCn1c(CSc2nnc(-c3ccoc3C)n2C)nc2cc(S(=O)(=O)N(C)C)ccc21 > 76.9 µM
CCSc1nnc(-c2cccc(S(=O)(=O)N(C)C)c2)n1-c1cc(OC)ccc1OC > 76.9 µM
CCOC(=O)c1cccc(NC(=O)CCS(=O)(=O)c2cccc3nsnc23)c1 > 76.9 µM
CCOc1ccccc1C(=O)N(CN1CCCC1=O)c1ccc(C)c(Cl)c1 > 76.9 µM
Cc1ccc(NC(=O)COC(=O)Cn2c(C)csc2=O)cc1C > 76.9 µM
CCC(=O)N1CCN(c2cc(C)ccc2C)CC1 > 76.9 µM
Cc1ccccc1-n1nc2c(c1NC(=O)c1c(-c3ccccc3Cl)noc1C)CS(=O)(=O)C2 > 76.9 µM
O=C(Nc1cnccn1)C1c2ccccc2Oc2ccccc21 > 76.9 µM
N#Cc1c(N)nc2c(c1-c1ccncc1)CCCC2 > 76.9 µM
Cc1nc(NC(=O)c2oc3ccccc3c2C)sc1C(=O)N(C)C > 76.9 µM
COc1ccc2cc(CN(CCc3ccccc3)Cc3nnnn3Cc3ccco3)c(=O)[nH]c2c1 > 76.9 µM
CCOC(=O)c1cc(CC)sc1NC(=O)Cc1ccsc1 > 76.9 µM
Cn1c(=O)[nH]c(=O)c2c1nc(NCCCn1ccnc1)n2Cc1ccc(F)cc1 > 76.9 µM
COc1ccc(-c2nnc(SCc3ncc(-c4ccccc4)o3)o2)cc1 > 76.9 µM
COc1ccccc1C(=O)Nc1c2c(nn1-c1cccc(C)c1C)CS(=O)(=O)C2 > 76.9 µM
Cc1cccc2[nH]c(-c3ccc(NC(=O)c4ccco4)cc3)nc12 > 76.9 µM
CCCC(c1nnnn1CCc1ccccc1)N1CCN(C(=O)c2ccco2)CC1 (stereo unspecified) > 76.9 µM
Cc1ccc2c(CN3CCCc4ccccc43)cc(=O)oc2c1C > 76.9 µM
O=C1c2cccnc2C(=O)N1Cc1ccc(F)cc1 > 76.9 µM
COc1ccc(CCN(C)CCN2C(=O)c3ccccc3C2=O)cc1OC > 76.9 µM
O=C(CN1C(=O)C2C3C=CC(C3)C2C1=O)Nc1ccc2c(c1)OCCO2 (stereo unspecified) > 76.9 µM
Cc1ccc2cc(CN(CC3CCCO3)S(=O)(=O)c3ccc4c(c3)OCCO4)c(=O)[nH]c2c1C (stereo unspecified) > 76.9 µM
O=C(CSCc1ccccc1)N1CCN(C(=O)c2ccco2)CC1 > 76.9 µM
CC(C)C(NC(=O)C1CCCCC1)C(=O)NCc1ccccn1 (stereo unspecified) > 76.9 µM
CCOC(=O)Cn1c(C(=O)OCC)cc2sccc21 > 76.9 µM
CC(C(=O)c1ccccc1)n1c(N2CCOCC2)nc2c1c(=O)n(C)c(=O)n2C (stereo unspecified) > 76.9 µM
CCN(CC)CCn1c2ccccc2c2nc(C)sc21 > 76.9 µM
Cc1nc2ccccc2c(=O)n1N > 76.9 µM
Cc1cc(Nc2cccc(C(F)(F)F)c2)n2nc(C)nc2n1 > 76.9 µM
c1ccc(CSc2nnc(NC3=NCCCCC3)s2)cc1 > 76.9 µM
CCCCc1c(O)nc(SCC(=O)Nc2ccc3c(c2)CCC3)[nH]c1=O > 76.9 µM
COC(=O)COc1ccc(-c2nn(C)c(=O)c3ccccc23)cc1 > 76.9 µM
Cc1cccc(NC(=O)Cn2nnc(-c3cccs3)n2)c1C > 76.9 µM
Nc1nonc1-c1noc(-c2ccc(Br)o2)n1 > 76.9 µM
c1cncc(-c2nn[nH]n2)c1 > 76.9 µM
CC(=O)c1n[nH]nc1Nc1nc(C)cc(C)n1 > 76.9 µM
CCCCP(=O)(c1ccccn1)c1ccccn1 > 76.9 µM
Cc1nn(C)cc1CN(C)C(=O)c1cc2nc(-c3ccco3)cc(C(F)(F)F)n2n1 > 76.9 µM
COc1ccc(OC)c(-c2oc3ccccc3c(=O)c2O)c1 > 76.9 µM
O=C(O)C1C2C=CC(C2)C1C(=O)NC1CCS(=O)(=O)C1 (stereo unspecified) > 76.9 µM
Cc1nc2ccc(S(=O)(=O)Nc3ccccc3C)cc2s1 > 76.9 µM
CCOC(=O)N1CCC(Nc2c(N3CCN(c4cccc(C(F)(F)F)c4)CC3)c(=O)c2=O)CC1 > 76.9 µM
CCC12CN3CC(CC)(CN(C1)C3c1ccccc1Cl)C2O (stereo unspecified) > 76.9 µM
Cc1cc(C)c2nc3s/c(=C/c4ccc5c(c4)n(C)c(=O)n5C)c(=O)n3c2c1 > 76.9 µM
Cc1cc(C)cc(OCc2nnc(SCC(=O)OC3CCCCC3)o2)c1 > 76.9 µM
COc1ccc(-c2noc(CCCOc3ccccc3)n2)cc1OC > 76.9 µM
Cc1cc2c(c(=O)o1)C(C13C=CC(CC1)C3)C(C#N)=C(N)O2 (stereo unspecified) > 76.9 µM
O=C(COC(=O)Cn1[nH]c(=O)c2ccccc2c1=O)Nc1ccc2c(c1)OCO2 > 76.9 µM
O=C(Nc1ccccc1C(=O)N1CCCCC1)c1cccc(S(=O)(=O)N2CCOCC2)c1 > 76.9 µM
O=C(Nc1ccc(F)cc1)N(Cc1nnc2n1CCCCC2)c1ccccc1 > 76.9 µM
O=C(Nc1nc(-c2ccncc2)cs1)c1ccco1 > 76.9 µM
O=CN1CC(=O)N(c2ccccc2)c2c([nH]c3ccccc23)C1 > 76.9 µM
Cc1ccccc1OCC(O)Cn1c(SC(C)C)nc2c1c(=O)[nH]c(=O)n2C (stereo unspecified) > 76.9 µM
CCOc1ccc(-n2cc(C(=O)N3CCCCCC3)c3cc(OC)c(OC)cc3c2=O)cc1 > 76.9 µM
Cc1cc(C)n(CC(=O)NCc2cc(-c3nn(C)c(=O)c4ccccc34)ccc2C)n1 > 76.9 µM
CC(=O)Nc1cccc(-c2nc3ccc(NC(C)=O)cc3[nH]2)c1 > 76.9 µM
Cc1cc(C(=O)Nc2c(F)cc(F)cc2Br)c(C)o1 > 76.9 µM
CC(C(=O)N1CCOCC1)N1c2cccc3cccc(c23)S1(=O)=O (stereo unspecified) > 76.9 µM
Cc1nc2scc(-c3ccccc3)c2c(=O)n1N > 76.9 µM
Cc1cnc(C(=O)Nc2nnc(C)s2)cn1 > 76.9 µM
C=CCn1c(=O)c(C#N)cc2c(=O)n3ccccc3nc21 > 76.9 µM
O=C(CSc1nnc(Cc2ccccc2)o1)N1CCCc2ccccc21 > 76.9 µM
Cc1ccccc1S(=O)(=O)Cc1ccc(C(=O)N2CCN(c3ccc(F)cc3)CC2)o1 > 76.9 µM
Cc1nc2nc(C)c(CCC(=O)NCCC3=CCCCC3)c(C)n2n1 > 76.9 µM
Nc1nsnc1C(=O)NCCO > 76.9 µM
Cc1nc(NCC2CCCO2)c2oc3ccccc3c2n1 (stereo unspecified) > 76.9 µM
COc1ccc(-c2cc(-c3cc(F)ccc3O)[nH]n2)cc1OC > 76.9 µM
O=C(CSc1nc2ccccc2c(=O)n1NC(=O)Cc1ccccc1)NCc1ccco1 > 76.9 µM
